Consider twelve compounds from ChEMBL document CHEMBL1130307, “Inhibition of Matrix Metalloproteinases: An examination of the S1 pocket” (Bioorg Med Chem Lett, 1997).

As usually defined, the IC50 is the concentration at which inhibition is half-maximal. The low end stands for greater potency, the high end for weaker potency.

In assay [1] the target is T1, Interstitial collagenase (Homo sapiens, UniProt P03956).
T1 sequence (P03956 whole entry): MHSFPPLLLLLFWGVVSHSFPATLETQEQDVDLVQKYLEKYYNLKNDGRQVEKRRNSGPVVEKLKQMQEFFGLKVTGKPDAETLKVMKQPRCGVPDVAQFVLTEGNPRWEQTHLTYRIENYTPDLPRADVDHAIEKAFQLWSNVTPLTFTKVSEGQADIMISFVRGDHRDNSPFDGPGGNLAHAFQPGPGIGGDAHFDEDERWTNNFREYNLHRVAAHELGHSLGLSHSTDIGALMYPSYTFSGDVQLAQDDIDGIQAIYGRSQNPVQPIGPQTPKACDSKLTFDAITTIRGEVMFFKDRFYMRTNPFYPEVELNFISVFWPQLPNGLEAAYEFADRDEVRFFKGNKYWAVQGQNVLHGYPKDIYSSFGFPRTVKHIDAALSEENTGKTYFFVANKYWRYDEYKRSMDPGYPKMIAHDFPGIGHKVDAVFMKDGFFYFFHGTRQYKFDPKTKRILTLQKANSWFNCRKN

Assay [2] has as its target 72 kDa type IV collagenase (Homo sapiens, UniProt P08253).
Assay [3] addresses T1, Interstitial collagenase. The source holds these as a separate data set.
The target in a further assay is T2, Matrilysin (Homo sapiens, UniProt P09237).
T2 sequence (P09237 whole entry): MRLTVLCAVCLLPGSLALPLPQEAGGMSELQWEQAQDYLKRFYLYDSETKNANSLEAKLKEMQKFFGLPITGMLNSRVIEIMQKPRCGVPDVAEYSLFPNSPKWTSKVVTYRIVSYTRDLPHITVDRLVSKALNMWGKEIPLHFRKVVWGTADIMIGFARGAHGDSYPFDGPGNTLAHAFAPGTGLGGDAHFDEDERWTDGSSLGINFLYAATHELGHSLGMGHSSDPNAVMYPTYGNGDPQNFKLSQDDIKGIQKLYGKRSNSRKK

Sequence of 72 kDa type IV collagenase (P08253 whole entry): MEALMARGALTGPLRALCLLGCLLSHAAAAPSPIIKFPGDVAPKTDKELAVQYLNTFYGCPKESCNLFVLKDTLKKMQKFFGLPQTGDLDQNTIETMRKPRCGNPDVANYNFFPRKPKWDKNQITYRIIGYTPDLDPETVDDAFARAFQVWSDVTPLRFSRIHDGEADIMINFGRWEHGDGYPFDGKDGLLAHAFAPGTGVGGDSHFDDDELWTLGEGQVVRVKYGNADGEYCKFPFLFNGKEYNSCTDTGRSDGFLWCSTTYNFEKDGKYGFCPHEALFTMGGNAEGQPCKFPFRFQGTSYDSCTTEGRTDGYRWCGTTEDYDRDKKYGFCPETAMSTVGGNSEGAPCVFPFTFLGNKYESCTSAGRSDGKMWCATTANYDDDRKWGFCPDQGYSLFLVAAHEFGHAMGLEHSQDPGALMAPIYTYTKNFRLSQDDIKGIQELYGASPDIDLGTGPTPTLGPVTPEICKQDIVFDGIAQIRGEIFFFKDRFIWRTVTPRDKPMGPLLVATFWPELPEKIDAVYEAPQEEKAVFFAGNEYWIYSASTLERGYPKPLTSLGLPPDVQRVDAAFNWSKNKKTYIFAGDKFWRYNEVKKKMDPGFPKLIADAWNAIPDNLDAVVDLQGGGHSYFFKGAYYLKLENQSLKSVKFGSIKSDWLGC

On to `CNC(=O)[C@@H](NC(=O)[C@H](CCCCCCCCCCCCCCO)CC(=O)NO)C(C)(C)C`, for which the IC50 came to 300 nM against Interstitial collagenase [1] and 0.5 nM in assay [2].
On to `CCCCCCCCCCCCCCC[C@H](CC(=O)O)C(=O)N[C@H](C(=O)NC)C(C)(C)C`, for which the IC50 on Interstitial collagenase [3] was 8000 nM; in assay [2] it was 90 nM.
As for `CCCCCCCC[C@H](CC(=O)NO)C(=O)N[C@H](C(=O)NC)C(C)(C)C`, the IC50 worked out at 100 nM against Interstitial collagenase [1] and 0.7 nM in assay [2].
In the case of `CCCCCCCCCCCCC[C@H](CC(=O)NO)C(=O)N[C@H](C(=O)NC)C(C)(C)C`, the IC50 against Interstitial collagenase [1] came out at 3000 nM; in assay [2] it was 3 nM.
In the case of `CCCCCCCC[C@H](CC(=O)O)C(=O)N[C@H](C(=O)NC)C(C)(C)C`, the figures for the IC50 (against Interstitial collagenase [3]; in assay [2]) were 20000 nM and 900 nM, respectively.
For `CCCCCCCCCCCCCC[C@H](CC(=O)O)C(=O)N[C@H](C(=O)NC)C(C)(C)C`, it took 50 nM to reach half-maximal inhibition in assay [2] (IC50). That is a double-digit nanomolar value.
Take `CCCCCCCCCCCCC[C@H](CC(=O)O)C(=O)N[C@H](C(=O)NC)C(C)(C)C`: the IC50 was determined as 5000 nM on Interstitial collagenase [3] and 100 nM in assay [2].
For the compound `CNC(=O)[C@H](Cc1ccccc1)NC(=O)[C@H](CCCCCOc1ccccc1)CC(=O)NO`, the IC50 in assay [2] turned out to be 0.31 nM.
Turning to `CCCCCCCCCCCCCCCC[C@H](CC(=O)NO)C(=O)N[C@H](C(=O)NC)C(C)(C)C`, the IC50 against Interstitial collagenase [1] stood at 5000 nM; at Matrilysin it was 5000 nM; in assay [2], 0.6 nM.
In turn, `CCCCCCCCC[C@H](CC(=O)NO)C(=O)N[C@H](C(=O)NC)C(C)(C)C` registered an IC50 in assay [2] below 0.15 nM.
Turning to `CCCCCCCCCCCCCCCC[C@H](CC(=O)O)C(=O)N[C@H](C(=O)NC)C(C)(C)C`, 30 nM corresponded to half-maximal inhibition in assay [2] (IC50). This counts as double-digit nanomolar.
In the case of `CCCCCCCCCCCCCC[C@H](CC(=O)NO)C(=O)N[C@H](C(=O)NC)C(C)(C)C`, the concentration for half-maximal inhibition (IC50) against Interstitial collagenase [1] turned out to be 3000 nM; in assay [2], 0.8 nM.
